# The campaign covered roughly 360,000 compounds. About 16,000 (4.4%) were called active. The shares of active, inactive and inconclusive entries below differ from those in the screen. Calls come from the whole dose curve; as a rule, active = well fitted inhibition curve with a large enough effect; inconclusive = small, poorly fitted or top-dose-only effect; inactive = no such curve, though single readings can be large or run the other way. Potencies of inconclusive entries are doubtful fits and often do not repeat.
# Molecular target: Bromodomain adjacent to zinc finger domain protein 2B (Homo sapiens) (UniProt Q9UIF8)
# UniProt Q9UIF8, sequence (Q9UIF8 whole entry, looked up, the tested form may be a part): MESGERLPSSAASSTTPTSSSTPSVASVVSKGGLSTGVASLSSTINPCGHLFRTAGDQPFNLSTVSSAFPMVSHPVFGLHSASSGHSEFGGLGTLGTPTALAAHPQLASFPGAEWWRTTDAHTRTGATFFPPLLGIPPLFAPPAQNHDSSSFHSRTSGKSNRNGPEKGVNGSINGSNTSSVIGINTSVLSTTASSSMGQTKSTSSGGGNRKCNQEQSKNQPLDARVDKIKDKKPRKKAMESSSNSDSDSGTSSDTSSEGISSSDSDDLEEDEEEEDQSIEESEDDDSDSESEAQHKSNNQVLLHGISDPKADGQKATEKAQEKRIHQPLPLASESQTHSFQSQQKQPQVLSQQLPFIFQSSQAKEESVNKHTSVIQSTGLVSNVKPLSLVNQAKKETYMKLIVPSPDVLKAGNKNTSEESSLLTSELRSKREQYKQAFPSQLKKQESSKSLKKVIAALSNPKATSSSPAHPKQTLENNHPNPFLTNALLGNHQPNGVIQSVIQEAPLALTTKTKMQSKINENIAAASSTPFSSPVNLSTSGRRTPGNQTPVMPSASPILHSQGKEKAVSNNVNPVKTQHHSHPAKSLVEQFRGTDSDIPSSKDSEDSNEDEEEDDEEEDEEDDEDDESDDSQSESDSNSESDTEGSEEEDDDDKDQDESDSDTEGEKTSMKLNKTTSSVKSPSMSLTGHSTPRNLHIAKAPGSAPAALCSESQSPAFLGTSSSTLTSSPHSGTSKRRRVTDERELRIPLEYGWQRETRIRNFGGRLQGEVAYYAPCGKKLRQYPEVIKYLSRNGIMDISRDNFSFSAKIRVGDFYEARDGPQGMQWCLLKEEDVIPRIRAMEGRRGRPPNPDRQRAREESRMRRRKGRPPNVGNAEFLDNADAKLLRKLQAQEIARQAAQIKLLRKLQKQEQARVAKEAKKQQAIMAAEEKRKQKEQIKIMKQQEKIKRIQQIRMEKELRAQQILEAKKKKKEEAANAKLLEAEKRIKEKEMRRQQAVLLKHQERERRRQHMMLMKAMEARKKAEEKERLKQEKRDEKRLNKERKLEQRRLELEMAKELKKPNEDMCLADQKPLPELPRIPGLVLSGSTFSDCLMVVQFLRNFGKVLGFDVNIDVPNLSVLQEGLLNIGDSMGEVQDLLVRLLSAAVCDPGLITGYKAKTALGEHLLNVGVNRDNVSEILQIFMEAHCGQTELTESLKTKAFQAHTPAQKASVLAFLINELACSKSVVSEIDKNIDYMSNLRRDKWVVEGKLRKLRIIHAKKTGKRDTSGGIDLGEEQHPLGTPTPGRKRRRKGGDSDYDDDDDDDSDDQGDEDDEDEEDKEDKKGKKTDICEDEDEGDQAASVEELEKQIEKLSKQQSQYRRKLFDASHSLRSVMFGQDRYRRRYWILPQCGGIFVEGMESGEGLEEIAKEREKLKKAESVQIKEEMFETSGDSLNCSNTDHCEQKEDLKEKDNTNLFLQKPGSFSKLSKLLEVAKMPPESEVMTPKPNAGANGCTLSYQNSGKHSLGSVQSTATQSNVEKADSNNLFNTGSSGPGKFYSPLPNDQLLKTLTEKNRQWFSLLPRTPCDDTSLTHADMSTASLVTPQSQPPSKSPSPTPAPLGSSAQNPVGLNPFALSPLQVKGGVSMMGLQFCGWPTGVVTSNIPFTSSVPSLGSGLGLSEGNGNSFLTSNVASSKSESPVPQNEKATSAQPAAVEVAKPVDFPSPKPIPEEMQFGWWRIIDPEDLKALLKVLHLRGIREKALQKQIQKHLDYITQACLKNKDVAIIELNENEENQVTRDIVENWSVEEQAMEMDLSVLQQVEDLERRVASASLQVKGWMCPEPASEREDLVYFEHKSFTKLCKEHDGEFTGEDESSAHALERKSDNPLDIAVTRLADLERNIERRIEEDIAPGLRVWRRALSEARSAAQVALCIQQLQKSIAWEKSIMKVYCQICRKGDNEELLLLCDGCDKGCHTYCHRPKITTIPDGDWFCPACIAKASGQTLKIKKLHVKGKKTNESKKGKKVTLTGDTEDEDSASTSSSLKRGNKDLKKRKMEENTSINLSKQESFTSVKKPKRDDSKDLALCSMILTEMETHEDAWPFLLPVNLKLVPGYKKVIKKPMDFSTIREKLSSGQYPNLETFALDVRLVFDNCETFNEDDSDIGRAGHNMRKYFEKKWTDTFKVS
# Test: qHTS Assay for Inhibitors of BAZ2B; note: nearly all actives have a fitted effect of over 60% in size
# Conditions: AlphaScreen BAZ2B-H3K14Ac peptide displacement; series mostly up to 114 µM
# In short: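 AlphaScreen luminescence quantifies BAZ2B engagement of H3K14Ac peptide; the protein and biotinylated peptide are both at 50 nM final, buffer PBS pH 7.4 with 0.01% Tween-20, all steps at room temperature.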
# Potency is the fitted concentration of half-maximal effect; tags give direction and shape of the fitted curve.
row,SMILES,Potency
1,O=C(CCN1C(=O)c2ccccc2Sc2ncccc21)Nc1ccc(F)cc1F,inactive
2,Cc1cc(O)ccc1N/C=C1\CCCC1=O,"inconclusive: 79.4 µM [inhibitor, single point]"
3,CC(C)(C)c1ccc(C(=O)NCCC(=O)NCc2ccco2)cc1,"inconclusive: 44.7 µM [inhibitor, partial curve]"
4,Cc1ccc(C)c(OCC(O)CN2CCC(C)CC2)c1C (stereo unspecified),active: 50.1 µM
5,c1ccc(OCCN2CCOCC2)cc1,active: 35.5 µM
6,CCc1ccccc1OCC(=O)Nc1ccc(F)c(S(=O)(=O)N2CCOCC2)c1,"inconclusive: 1.41 µM [inhibitor, full curve, poor fit]"
7,CCOC(=O)C(=O)Nc1nc(-c2ccc3c(c2)CCN3C(=O)C2CC2)c(C)s1,"inconclusive: 56.2 µM [inhibitor, partial curve]"
8,Cc1cc(C)nc(N2CCCC(C(=O)NCc3ccccc3F)C2)n1 (stereo unspecified),"inconclusive: 89.1 µM [inhibitor, single point]"
9,CCOC(=O)c1cc(C#N)c(SCC(=O)O)[nH]c1=O,"inconclusive: 89.1 µM [inhibitor, single point]"
10,COc1ccc(Cc2nnc(NC(=O)Nc3ccccc3F)s2)cc1OC,inactive
11,Cc1cccc(N2CCN(C(=O)c3ccc(CS(=O)(=O)c4ccccc4C)o3)CC2C)c1 (stereo unspecified),"inconclusive: 39.8 µM [inhibitor, partial curve]"
12,CCCNC(=S)N1CCC(NC(=O)c2ccc(C)cc2)CC1,"inconclusive: 89.1 µM [inhibitor, single point]"
13,COC(=O)c1ccc(-c2ccc(Cl)cc2)nc1C,inactive
14,Cc1ccc(Nc2sc(C(=O)c3ccccc3)c(N)c2C(=O)Nc2ccc(Cl)cc2)cc1,"inconclusive: 39.8 µM [inhibitor, full curve, poor fit]"
15,CN(/C=C/C(=C/C=[N+](C)c1ccccc1)OCCCS(=O)(=O)[O-])c1ccccc1,"inconclusive: 79.4 µM [inhibitor, partial curve]"
16,CN1CCN(c2nc(-c3cccc([N+](=O)[O-])c3)nc3ccccc23)CC1,"inconclusive: 56.2 µM [inhibitor, single point]"
17,COc1cc(CN2CCN(C(=O)c3cccc4ccccc34)CC2)cc(OC)c1OC,active: 56.2 µM
18,COc1nc(N(C)C)nc(N(C#N)S(=O)(=O)c2ccc(C)cc2)n1,inactive
19,Cc1ccc(NC(=S)N2CCCC(CO)C2)c(C)c1 (stereo unspecified),inactive
20,C[C@@H](C(=O)Nc1ccc2ccccc2c1)[C@H]1C[C@]1(C)[C@H](NC(=O)c1cnccn1)c1ccccc1,"inconclusive: 89.1 µM [inhibitor, single point]"
21,CCOc1cccc2sc(N(CCCN(C)C)C(=O)c3ccc(S(=O)(=O)N(C)c4ccccc4)cc3)nc12,"inconclusive: 35.5 µM [inhibitor, partial curve]"
22,CCc1cccc(OCC(=O)Nc2ccc(C(=O)O)cc2NC(=O)COc2cccc(CC)c2)c1,"inconclusive: 17.8 µM [inhibitor, full curve]"
23,N#Cc1nc(COc2ccc(Br)cc2)oc1N1CCCC1,active: 25.1 µM
24,CCCOc1ccc(N2C(=O)CC(SC(=N)N3N=C(c4ccccc4)CC3c3ccccc3)C2=O)cc1 (stereo unspecified),"inconclusive: 89.1 µM [inhibitor, partial curve]"

row,SMILES,Potency
1,COc1cccc(C(=O)/C=C2\NCCc3cc(OC)c(OC)cc32)c1,"inconclusive: 44.7 µM [inhibitor, partial curve]"
2,CN(C)CCNC(=O)c1ccc2c(c1)NC(=O)C(CS(=O)(=O)Cc1cccc(Br)c1)N2 (stereo unspecified),"inconclusive: 20 µM [inhibitor, full curve]"
3,CCCNC(=O)c1ccc2c(=O)n3c(-c4ccc(C)cc4)csc3nc2c1,active: 7.08 µM
4,CCOC(=O)CSc1nnc(Cc2ccccc2)n1-c1cccc(Cl)c1,"inconclusive: 100 µM [inhibitor, single point]"
5,CCOC(=O)N1CCN(c2cc(NCCC(=O)O)c3c4c(onc24)-c2ccccc2C3=O)CC1,active: 28.2 µM
6,CC(C)=C1C2CCC1C(C(=O)NCCc1ccccc1)C2C(=O)O (stereo unspecified),inactive
7,COc1cc(OC)c(C2CC(=O)N3CN(c4ccc(C)cc4)CSC3=C2C#N)cc1OC (stereo unspecified),"inconclusive: 50.1 µM [inhibitor, partial curve]"
8,CCCCN1C(=O)c2[nH]nc(-c3ccccc3O)c2C1c1ccc(OCc2ccccc2)cc1 (stereo unspecified),"inconclusive: 22.4 µM [inhibitor, full curve]"
9,COc1ccc(S(=O)(=O)NCCc2csc3nc(-c4cccc(C)c4)nn23)cc1F,"inconclusive: 89.1 µM [inhibitor, single point]"
10,Cc1cc(C(=O)Nc2ccc(N3CCCC3)c(Cl)c2)ccc1[N+](=O)[O-],active: 28.2 µM
11,O=C1c2ccccc2C(Nc2ccc3c(c2)OCCO3)N1Cc1ccco1 (stereo unspecified),"inconclusive: 70.8 µM [inhibitor, single point]"
12,O=C1/C(=C\c2ccc(-c3ccccc3Cl)o2)SC(=S)N1CC1CCCO1 (stereo unspecified),"inconclusive: 79.4 µM [inhibitor, single point]"
13,NC(=O)c1c(NC(=O)C2CC=CCC2C(=O)O)sc2c1CCCCC2 (stereo unspecified),"inconclusive: 50.1 µM [inhibitor, partial curve]"
14,CC1(C)N([O-])C2=C(CCCC2)[N+]1=O,"inconclusive: 79.4 µM [inhibitor, single point]"
15,Cc1c(C(=O)N2CCC(C)CC2)c(S(=O)(=O)NCc2ccc(Cl)cc2)c(C)n1C,"inconclusive: 50.1 µM [inhibitor, partial curve]"
16,COc1ccc(S(=O)(=O)NCc2ccccn2)cc1NC(=O)c1ccccc1C,"inconclusive: 79.4 µM [inhibitor, single point]"
17,COc1cc(CNc2ccc(N3CCCCC3)cc2)ccc1OCC(=O)NC(C)(C)C,active: 31.6 µM
18,Oc1ccc(/C=N/n2c(-c3ccco3)csc2=Nc2cccnc2)c(O)c1,"inconclusive: 28.2 µM [inhibitor, partial curve]"
19,CCCCCCNC(=O)N[C@@H](C(=O)NCCC[C@H]1CN2C(=NC[C@@H]2Cc2ccccc2)N1CCc1cccc(OC)c1)C(C)C,active: 25.1 µM
20,CCOc1ccc(OCC(=O)NCCS(=O)(=O)N2CCN(c3ccccc3F)CC2)cc1,inactive
21,NS(=O)(=O)c1ccc(-c2c(-c3ccccc3)sc3ccccc23)cc1,active: 56.2 µM
22,N#CC1=C(N)SC(N)=C(C#N)C1c1c(Cl)cccc1Cl,"inconclusive: 89.1 µM [inhibitor, single point]"
23,CCCCNC(=O)C(CC)(ONc1ccccc1C(F)(F)F)c1ccccc1 (stereo unspecified),"inconclusive: 44.7 µM [inhibitor, partial curve]"
24,Cc1cc(-c2ccccc2)n2nc(-c3ccc(Cl)cc3)cc2n1,inactive

row,SMILES,Potency
1,COC(=O)c1ccc2c(c1)SC1=C(CCCC1=O)N2,active: 39.8 µM
2,O=C(CSc1ccc(-c2ccco2)nn1)NCc1ccccc1Cl,inactive
3,O=[N+]([O-])c1cnccc1Nc1cccc(F)c1,"inconclusive: 79.4 µM [inhibitor, single point]"
4,Cc1ccc(-n2nc(-c3ccco3)cc2C(=O)O)c(C)c1,active: 44.7 µM
5,COc1ccc(C2C(C#N)=C(N)OC3=C2C(=O)CC(C)(C)C3)cc1OC (stereo unspecified),inactive
6,CCc1ccc(S(=O)(=O)c2nnn3c2nc(N2CCOCC2)c2sccc23)cc1,"inconclusive: 79.4 µM [inhibitor, single point]"
7,Nc1ccc(Nc2ccncc2[N+](=O)[O-])cc1,"inconclusive: 79.4 µM [inhibitor, single point]"
8,O=C(O)c1cnc(-c2ccccc2)nc1Sc1ccccc1,"inconclusive: 25.1 µM [inhibitor, single point]"
9,CCOc1cc(/C=C2\SC(=S)N(Nc3ccccc3)C2=O)ccc1O,active: 20 µM
10,CCn1c(CNC(=O)C2CCCCC2)cc2ccccc21,"inconclusive: 89.1 µM [inhibitor, single point]"
11,Cc1ccccc1-n1nc(C)c2c1N=C1C(Cl)=CC(Cl)=CN1C2c1ccc(C(=O)O)cc1 (stereo unspecified),"inconclusive: 70.8 µM [inhibitor, single point]"
12,CCc1ccccc1NC(=O)Cn1c(=O)n(CCCCCC(=O)NCc2ccc(C)cc2)c(=O)c2sccc21,"inconclusive: 89.1 µM [inhibitor, single point]"
13,COc1cc(Cl)c(C)cc1NC(=O)CSc1nc2c(c(=O)[nH]1)CCC2,inactive
14,Cc1ccccc1Nc1cc(C)c2c(O)cccc2n1,"inconclusive: 44.7 µM [inhibitor, partial curve]"
15,O=S(=O)(c1cc(Cl)ccc1Cl)n1nnc2ccccc21,"inconclusive: 89.1 µM [inhibitor, single point]"
16,Cc1cc(NC(=O)Nc2nnc(N(C)C3CCCCC3)s2)ccc1Br,active: 50.1 µM
17,CCc1ccc(NCc2cc3cc4c(cc3n(CC(=O)Nc3ccccc3OC)c2=O)OCCO4)cc1,inactive
18,Cn1cccc1-c1cc(C(=O)N2CCc3c([nH]c4ccccc34)C2c2ccccn2)[nH]n1 (stereo unspecified),active: 35.5 µM
19,CC(CNC(=O)CN1C(=O)NC2(CCOc3ccccc32)C1=O)c1ccccc1 (stereo unspecified),inactive
20,Cc1ccc(-c2csc(NC(=O)C3CSC4(C)CCC(=O)N34)n2)cc1 (stereo unspecified),active: 79.4 µM
21,CCC(C)NC(=O)C1CCC(CNS(=O)(=O)c2ccc3c(c2)CC(C)N3C(C)=O)CC1 (stereo unspecified),inactive
22,COc1ccc(-c2cc(C(=O)NC(C)c3ccccc3)c3cc(C(C)C)ccc3n2)cc1 (stereo unspecified),inactive
23,O=C(N/N=C\c1ccc([N+](=O)[O-])s1)C1COc2ccccc2O1 (stereo unspecified),inactive

# Reference: PubChem BioAssay AID504333 (National Center for Advancing Translational Sciences (NCATS), 2011)
